Laboratory results reported in PubChem BioAssay AID624296 (National Center for Advancing Translational Sciences (NCATS), 2012).
The whole screen tested about 350,000 compounds, of which about 9,900 (2.8%) were called active. This list was built around the results that the source calls inconclusive (neither active nor inactive); the mix of calls is not that of the screen. Calls follow the shape of the dose curve; as a rule, active = well fitted activation curve with a large enough effect; inconclusive = small, poorly fitted or top-dose-only effect; inactive = no such curve, though single readings can be large or run the other way. Potencies of inconclusive entries are left out as doubtful fits.

Assay: A quantitative high throughput screen for small molecules that induce DNA re-replication in MCF 10a normal breast cells. Also: nearly all actives have a fitted effect of over 50% in size. As to activity, positive = re-replication: % of control where 0% means no effect.
Settings: MCF 10A DNA re-replication, Hoechst nuclear intensity, 48 h; activity, positive = re-replication: at 46.1 µM (top of the series)
Potency is read from the fitted curve at half-maximal effect; tags tell the direction and shape of the fitted curve.

SMILES	Potency	activity, positive = re-replication
CCN(CC)S(=O)(=O)c1ccc(C(=O)Nc2cc(C)on2)cc1	inconclusive [activator, partial curve, poor fit]	–
CC(=O)c1cccc(CN2CCN(C3CCCCC3)C(CCO)C2)c1 (configuration not stated)	–	inactive: -0.409%
COc1ccc([C@@H](C)NC(=O)CCc2nnc(-c3cc(C)on3)o2)cc1	–	inactive: 23.6%
Cc1cccc(SCC(=O)Nc2ccccc2[N+](=O)[O-])c1	–	inactive: 4.86%
CC1(C)Cc2ccccc2-c2nc(NN)[nH]c(=O)c21	inconclusive [activator, single point]	–
CCOc1cc2[nH]c(=S)n(Cc3ccc(C(=O)NCC(OC)OC)cc3)c(=O)c2cc1OCC	–	inactive: 1.35%
C/C=C(\C)c1nnc(NC(=O)c2ccco2)s1	–	inactive: -1.49%
CCCCNc1cc(NC(C)=O)cc2cc(OC)c(OC)cc12	–	inactive: 0.629%
Cc1cc(N2CCCCC2)nc2ccc(NC(=O)CCC(=O)NCCC(C)C)cc12	inconclusive [activator, single point]	–
O=C(NCCc1nc2ccccc2[nH]1)/C(=C/c1ccc2c(c1)OCO2)NC(=O)c1ccccc1	–	inactive: -1.76%
O=C(N=Nc1c(O)n(Cc2ccccc2)c2ccccc12)c1cc2ccccc2cc1O	active: 10.3 µM	–
CCCCNC(=O)CSc1nc2ccc(N3CCOCC3)cc2c(=O)n1Cc1ccc(OC)cc1	inconclusive [activator, single point]	–
CC(NC(=O)c1cc2cc(Br)ccc2oc1=N)c1ccccc1 (configuration not stated)	inconclusive [activator, partial curve, poor fit]	–
CCOC(=O)N1CCN(C(=O)CN(Cc2ccc(Cl)cc2)S(C)(=O)=O)CC1	–	inactive: 1.2%
Cc1noc(C)c1S(=O)(=O)Nc1ccc(C(=O)N2CCN(c3ccc(Cl)cc3)CC2)cc1	inconclusive [activator, single point]	–
O=C(CCC1CCCC1)Nc1ccc(C(=O)NCc2cccnc2)cc1	inconclusive [activator, partial curve, poor fit]	–
CN1CCN(c2nc(Nc3ccccc3)nc(N)c2[N+](=O)[O-])CC1	–	inactive: 2.79%
Clc1ccc(SCc2cc(-c3ccc(Cl)cc3)on2)cc1	inconclusive [activator, full curve, poor fit]	–
CC(=O)c1sc(NC(=O)CCS(=O)(=O)c2ccccc2)nc1C	active: 2.91 µM	–
S=C(NCCc1ccccc1)Nc1ccc(Cl)cc1Cl	–	inactive: 11.8%
CC(=O)N1N=C2c3ccccc3CCC2C1c1cccs1 (configuration not stated)	–	inactive: -2.19%
CCOc1ccc(N=c2scc(-c3ccccc3)n2CCO)cc1	–	inactive: -5.22%
CC(Sc1nnc(CNC(=O)c2ccco2)n1C)C(=O)Nc1nccs1 (configuration not stated)	inconclusive [activator, single point]	–
CCN(CC)CCCNC(=O)c1cc2c(-c3cccc(OC)c3)nn(C)c2s1	inconclusive [activator, single point]	–

SMILES	Potency	activity, positive = re-replication
Cc1ccc(S(=O)(=O)N2CCN(C(=O)c3ccccn3)CC2)c(C)c1	–	inactive: 5.53%
O=C(COC(=O)Cc1ccc([N+](=O)[O-])cc1)NC1CCCCCC1	–	inactive: -3.78%
Cc1ccc(C(=O)NCC(=O)Nc2ccc(S(=O)(=O)Nc3cc(C)nc(C)n3)cc2)cc1	–	inactive: 6.74%
COC(=O)c1sccc1NC(=O)CSc1ccccc1NS(=O)(=O)c1ccc(F)cc1	inconclusive [activator, partial curve, poor fit]	–
COc1ccc(-c2csc(NC(=O)CSc3nc(SC)ns3)n2)cc1	inconclusive [activator, single point]	–
CN(C)CCN(Cc1ccccc1)C(=O)[C@H](Cc1ccccc1)N1C(=O)c2ccccc2C1=O	–	inactive: 2.72%
O=C(NCCc1ccccn1)c1ccc(NS(=O)(=O)c2ccc(F)cc2)cc1	inconclusive [activator, full curve, poor fit]	–
CC1CCCCN1C(=O)CSc1nc(C2CC2)nc2c1cnn2-c1ccccc1 (configuration not stated)	–	inactive: -5.21%
CCOC(=O)C(C(=O)OCC)C(Nc1cccc(Br)c1)c1ccccc1 (configuration not stated)	inconclusive [activator, single point]	–
Cc1cc(C)n(-c2ccc(C(=O)Nc3ccc4c(c3)OCO4)cc2)n1	inconclusive [activator, partial curve, poor fit]	–
COc1ccc(CN2CCN(Cc3ccc(CO)o3)CC2CCO)cc1C (configuration not stated)	inconclusive [activator, single point]	–
NN/C(=C\[N+](=O)[O-])Nc1ccc(Cl)cc1	inconclusive [activator, partial curve]	–
O=C(Cc1cn2ccsc2n1)Nc1ccccc1Oc1ccccc1	inconclusive [activator, partial curve, poor fit]	–
CCc1ccc(-c2nc(SCC(=O)N(CC)C3CCS(=O)(=O)C3)n[nH]2)cc1 (configuration not stated)	–	inactive: 1.45%
N#CCCn1cc(/C=N/NC(N)=S)c(-c2ccc(Br)cc2)n1	inconclusive [activator, single point]	–
CC1=NN(C(=O)c2nn(C)cc2Br)C(O)(C(F)(F)F)C1 (configuration not stated)	inconclusive [activator, partial curve]	–
O=C(/C(=C/c1cccc(Cl)c1)c1nc2ccccc2[nH]1)c1ccccc1	inconclusive [activator, single point]	–
CN(C)CCOCCOc1ccc(Cl)c2ccccc12	inconclusive [activator, single point]	–
c1csc(C2C3=C(Nc4ncnn42)c2ccccc2OC3)c1 (configuration not stated)	inconclusive [activator, single point]	–
CCSc1nc(-c2ccccc2)c2cc(Cl)ccc2n1	–	inactive: 4.23%
COC(=O)N/N=C/c1cn(Cc2ccccc2F)c2ccccc12	inconclusive [activator, single point]	–
Cn1c(=O)n(C)c2cc(NC(=O)COc3ccc(Cl)cc3)ccc21	inconclusive [activator, single point]	–
CN(CC(=O)NCc1ccc(F)cc1)S(=O)(=O)c1cccc2nsnc12	–	inactive: 0.758%
